Results are given in words; binding and its absence hold for the method and conditions named. Binding seen in cells or lysates may run through a third protein. Some results given as binding are weak or reduced against the parent protein; the word gives no strength.
B1: WT p19Arf (protein, UniProt Q64364 1-169)
chain: MGRRFLVTVRIQRAGRPLQERVFLVKFVRSRRPRTASCALAFVNMLLRLERILRRGPHRNPGPGDDDGQRSRSSSSAQLRCRFELRGPHYLLPPGARRSAGRLPGHAGGAARVRGSAGCARCLGSPAARLGPRAGTSRHRAIFAFRWVLFVFRWVVFVYRWERRPDRRA
B2: ArfΔ14 (domain or fragment, UniProt Q64364 15-169)
chain: GRPLQERVFLVKFVRSRRPRTASCALAFVNMLLRLERILRRGPHRNPGPGDDDGQRSRSSSSAQLRCRFELRGPHYLLPPGARRSAGRLPGHAGGAARVRGSAGCARCLGSPAARLGPRAGTSRHRAIFAFRWVLFVFRWVVFVYRWERRPDRRA
B3: ArfΔ37 (domain or fragment, UniProt Q64364 38-169)
chain: CALAFVNMLLRLERILRRGPHRNPGPGDDDGQRSRSSSSAQLRCRFELRGPHYLLPPGARRSAGRLPGHAGGAARVRGSAGCARCLGSPAARLGPRAGTSRHRAIFAFRWVLFVFRWVVFVYRWERRPDRRA

By UniProt entry, the sequences of proteins in these tests, tags left out.
UniProt Q00417: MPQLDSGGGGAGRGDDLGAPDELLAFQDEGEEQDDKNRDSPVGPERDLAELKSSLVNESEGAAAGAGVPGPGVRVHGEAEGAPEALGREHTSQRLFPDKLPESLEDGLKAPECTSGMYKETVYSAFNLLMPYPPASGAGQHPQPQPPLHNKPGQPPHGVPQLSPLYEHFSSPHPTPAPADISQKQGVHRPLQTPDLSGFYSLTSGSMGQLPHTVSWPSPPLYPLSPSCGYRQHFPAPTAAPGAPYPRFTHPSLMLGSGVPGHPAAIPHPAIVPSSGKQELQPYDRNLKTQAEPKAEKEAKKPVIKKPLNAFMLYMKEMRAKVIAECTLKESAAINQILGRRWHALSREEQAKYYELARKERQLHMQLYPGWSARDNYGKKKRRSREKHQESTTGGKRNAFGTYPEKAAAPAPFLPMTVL
UniProt Q61188: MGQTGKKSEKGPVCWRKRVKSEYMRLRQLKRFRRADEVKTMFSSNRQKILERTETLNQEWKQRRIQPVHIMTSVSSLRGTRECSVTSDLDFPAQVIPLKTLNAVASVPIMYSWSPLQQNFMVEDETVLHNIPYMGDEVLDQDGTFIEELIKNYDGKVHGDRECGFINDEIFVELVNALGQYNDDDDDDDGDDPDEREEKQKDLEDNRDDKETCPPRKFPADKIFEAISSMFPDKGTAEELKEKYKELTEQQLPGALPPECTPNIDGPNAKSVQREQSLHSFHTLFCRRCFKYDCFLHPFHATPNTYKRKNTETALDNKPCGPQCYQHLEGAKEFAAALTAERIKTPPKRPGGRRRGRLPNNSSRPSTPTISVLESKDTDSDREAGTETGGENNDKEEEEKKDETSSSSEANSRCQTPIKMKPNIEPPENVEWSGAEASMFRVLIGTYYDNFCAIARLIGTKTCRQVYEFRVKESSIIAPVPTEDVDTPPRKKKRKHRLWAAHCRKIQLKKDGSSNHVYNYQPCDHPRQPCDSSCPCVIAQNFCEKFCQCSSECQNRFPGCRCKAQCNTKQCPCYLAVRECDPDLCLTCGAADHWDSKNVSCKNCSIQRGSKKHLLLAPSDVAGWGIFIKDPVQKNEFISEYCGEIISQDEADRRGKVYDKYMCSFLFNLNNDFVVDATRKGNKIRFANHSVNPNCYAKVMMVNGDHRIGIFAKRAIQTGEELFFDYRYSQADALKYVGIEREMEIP
UniProt Q96KQ7: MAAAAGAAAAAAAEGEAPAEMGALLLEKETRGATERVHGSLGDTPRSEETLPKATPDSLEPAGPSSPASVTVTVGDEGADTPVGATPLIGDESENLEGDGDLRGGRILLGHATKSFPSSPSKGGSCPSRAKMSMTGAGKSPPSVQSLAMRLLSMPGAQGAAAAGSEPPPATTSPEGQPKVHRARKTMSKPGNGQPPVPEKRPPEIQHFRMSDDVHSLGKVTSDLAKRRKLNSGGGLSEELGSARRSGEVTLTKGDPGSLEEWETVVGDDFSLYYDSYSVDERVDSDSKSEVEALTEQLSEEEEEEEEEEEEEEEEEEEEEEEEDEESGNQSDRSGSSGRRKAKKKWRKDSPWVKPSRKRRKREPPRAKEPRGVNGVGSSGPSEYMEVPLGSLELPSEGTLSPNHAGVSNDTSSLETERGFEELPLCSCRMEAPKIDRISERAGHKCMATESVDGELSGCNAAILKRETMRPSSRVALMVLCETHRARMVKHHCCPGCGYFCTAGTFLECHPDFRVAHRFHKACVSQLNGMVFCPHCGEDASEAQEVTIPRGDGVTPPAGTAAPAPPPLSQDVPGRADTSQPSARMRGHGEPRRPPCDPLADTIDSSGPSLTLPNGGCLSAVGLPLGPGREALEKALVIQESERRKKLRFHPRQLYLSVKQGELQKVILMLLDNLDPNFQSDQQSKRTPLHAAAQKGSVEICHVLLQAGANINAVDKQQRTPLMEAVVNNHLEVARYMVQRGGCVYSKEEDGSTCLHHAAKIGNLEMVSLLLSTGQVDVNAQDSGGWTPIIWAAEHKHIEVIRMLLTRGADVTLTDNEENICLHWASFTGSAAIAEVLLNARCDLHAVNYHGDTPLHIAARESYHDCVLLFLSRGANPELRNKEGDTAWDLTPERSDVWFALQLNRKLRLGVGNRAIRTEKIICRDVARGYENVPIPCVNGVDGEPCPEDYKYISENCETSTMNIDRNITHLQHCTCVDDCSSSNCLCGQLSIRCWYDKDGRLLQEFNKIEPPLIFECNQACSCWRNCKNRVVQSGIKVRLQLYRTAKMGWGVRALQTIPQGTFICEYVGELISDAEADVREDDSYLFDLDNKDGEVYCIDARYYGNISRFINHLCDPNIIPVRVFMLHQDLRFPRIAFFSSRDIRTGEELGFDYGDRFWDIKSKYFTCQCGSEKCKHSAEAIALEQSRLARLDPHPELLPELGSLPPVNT

Key:
[1] = molecular target: Tcf1 (endogenous, primary TFH cells) (mouse (endogenous in primary TFH cells)) (UniProt Q00417); assay: co-IP; endogenous proteins; lysate of sorted CXCR5+SLAMlo TFH cells from LCMV-infected mice; anti-Tcf1 (C63D9) or normal rabbit IgG, 5 h at 4 °C, Dynabeads Protein G; immunoblot with anti-Ezh2
FLAG-tagged Tcf1 = FLAG-tagged Tcf1 (UniProt Q00417); assay: co-IP; 293T cells co-transfected with FLAG-Tcf1 and HA-Ezh2 or HA-G9a; lysates 48 h later incubated overnight with anti-FLAG (M2), Dynabeads Protein G; immunoblot with anti-HA
WT Bcl6 = WT Bcl6 (UniProt P41183); assay: co-IP; 293T cells co-transfected with Bcl6-mCherry and Arf-GFP (WT or mutant forms); lysates immunoprecipitated with anti-Bcl6 (D65C10), immunoblot with anti-p19Arf (5-C3-1)

| Molecule | binding (WT Bcl6) | other results |
| --- | --- | --- |
| Ezh2 (endogenous, primary TFH cells) (from UniProt Q61188 1-746) (enzyme) |  | binding [1]: binds |
| HA-tagged G9a (from UniProt Q96KQ7 1-1210) (enzyme) |  | binding (FLAG-tagged Tcf1): no binding |
| B1 | binds |  |
| B2 | binds |  |
| B3 | binds weakly |  |

Source: paper PMC6303346
